Measured values as given in PMC9911399, “Two distinct binding modes provide the RNA-binding protein RbFox with extraordinary sequence specificity”.
Where a chain is given by its changes, count along the chain named. The list shows a part of the results.

T1: RBFOX1 RRM (Homo sapiens, UniProt Q9NWB1 109-208)
T1 sequence: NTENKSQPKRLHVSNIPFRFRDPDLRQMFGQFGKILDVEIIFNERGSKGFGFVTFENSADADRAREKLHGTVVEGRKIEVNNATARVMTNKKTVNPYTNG

B1: AUCCUGC (DNA:RNA)
RNA: GGGAGACCGGAAUUCAGAUUGUCCAUCCUGCUUAAAUCCCGUCGUAGCCACCA
DNA 1: CAATCTGAATTCCGGTCTCCC
DNA 2: TGGTGGCTACGACGGGATT
B2: GCUAUAU (DNA:RNA)
RNA: B1 RNA with A25G, U26C, C27U, C28A, G30A, C31U
DNA 1: CAATCTGAATTCCGGTCTCCC
DNA 2: TGGTGGCTACGACGGGATT
B3: UGUUCUC (DNA:RNA)
RNA: B1 RNA with A25U, U26G, C27U, C28U, U29C, G30U
DNA 1: CAATCTGAATTCCGGTCTCCC
DNA 2: TGGTGGCTACGACGGGATT
B4: AACGGCA (DNA:RNA)
RNA: B1 RNA with U26A, C28G, U29G, G30C, C31A
DNA 1: CAATCTGAATTCCGGTCTCCC
DNA 2: TGGTGGCTACGACGGGATT
B5: AUGCGAA (DNA:RNA)
RNA: B1 RNA with C27G, U29G, G30A, C31A
DNA 1: CAATCTGAATTCCGGTCTCCC
DNA 2: TGGTGGCTACGACGGGATT
B6: UCAGGGA (DNA:RNA)
RNA: B1 RNA with A25U, U26C, C27A, C28G, U29G, C31A
DNA 1: CAATCTGAATTCCGGTCTCCC
DNA 2: TGGTGGCTACGACGGGATT
B7: UUUCACU (DNA:RNA)
RNA: B1 RNA with A25U, C27U, U29A, G30C, C31U
DNA 1: CAATCTGAATTCCGGTCTCCC
DNA 2: TGGTGGCTACGACGGGATT
B8: CUGGAGG (DNA:RNA)
RNA: B1 RNA with A25C, C27G, C28G, U29A, C31G
DNA 1: CAATCTGAATTCCGGTCTCCC
DNA 2: TGGTGGCTACGACGGGATT
B9: AUUGUGA (DNA:RNA)
RNA: B1 RNA with C27U, C28G, C31A
DNA 1: CAATCTGAATTCCGGTCTCCC
DNA 2: TGGTGGCTACGACGGGATT
B10: UUAAGUG (DNA:RNA)
RNA: B1 RNA with A25U, C27A, C28A, U29G, G30U, C31G
DNA 1: CAATCTGAATTCCGGTCTCCC
DNA 2: TGGTGGCTACGACGGGATT
B11: GGGAGUA (DNA:RNA)
RNA: GGGAGACCGGAAUUCAGAUUGUCCGGGAGUAUUAAAUCCCGUCGUAGCCACCA
DNA 1: CAATCTGAATTCCGGTCTCCC
DNA 2: TGGTGGCTACGACGGGATT
B12: CGGCCUC (DNA:RNA)
RNA: B11 RNA with G25C, A28C, G29C, A31C
DNA 1: CAATCTGAATTCCGGTCTCCC
DNA 2: TGGTGGCTACGACGGGATT
B13: UUGACGU (DNA:RNA)
RNA: B1 RNA with A25U, C27G, C28A, U29C, C31U
DNA 1: CAATCTGAATTCCGGTCTCCC
DNA 2: TGGTGGCTACGACGGGATT
B14: GGGGAUG (DNA:RNA)
RNA: B11 RNA with A28G, G29A, A31G
DNA 1: CAATCTGAATTCCGGTCTCCC
DNA 2: TGGTGGCTACGACGGGATT
B15: CAUGUGA (DNA:RNA)
RNA: B1 RNA with A25C, U26A, C27U, C28G, C31A
DNA 1: CAATCTGAATTCCGGTCTCCC
DNA 2: TGGTGGCTACGACGGGATT
B16: ACACCCA (DNA:RNA)
RNA: B1 RNA with U26C, C27A, U29C, G30C, C31A
DNA 1: CAATCTGAATTCCGGTCTCCC
DNA 2: TGGTGGCTACGACGGGATT
B17: GCAAGAC (DNA:RNA)
RNA: B11 RNA with G26C, G27A, U30A, A31C
DNA 1: CAATCTGAATTCCGGTCTCCC
DNA 2: TGGTGGCTACGACGGGATT
B18: CGUCAGG (DNA:RNA)
RNA: B1 RNA with A25C, U26G, C27U, U29A, C31G
DNA 1: CAATCTGAATTCCGGTCTCCC
DNA 2: TGGTGGCTACGACGGGATT
B19: AUCCAGA (DNA:RNA)
RNA: B1 RNA with U29A, C31A
DNA 1: CAATCTGAATTCCGGTCTCCC
DNA 2: TGGTGGCTACGACGGGATT
B20: GAAUUGA (DNA:RNA)
RNA: B1 RNA with A25G, U26A, C27A, C28U, C31A
DNA 1: CAATCTGAATTCCGGTCTCCC
DNA 2: TGGTGGCTACGACGGGATT
B21: ACCAAAA (DNA:RNA)
RNA: B1 RNA with U26C, C28A, U29A, G30A, C31A
DNA 1: CAATCTGAATTCCGGTCTCCC
DNA 2: TGGTGGCTACGACGGGATT
B22: UUGCGUU (DNA:RNA)
RNA: B11 RNA with G25U, G26U, A28C, A31U
DNA 1: CAATCTGAATTCCGGTCTCCC
DNA 2: TGGTGGCTACGACGGGATT
B23: CGGCGUA (DNA:RNA)
RNA: B11 RNA with G25C, A28C
DNA 1: CAATCTGAATTCCGGTCTCCC
DNA 2: TGGTGGCTACGACGGGATT
B24: CAAGUGC (DNA:RNA)
RNA: B1 RNA with A25C, U26A, C27A, C28G
DNA 1: CAATCTGAATTCCGGTCTCCC
DNA 2: TGGTGGCTACGACGGGATT
B25: CUAGUCC (DNA:RNA)
RNA: B1 RNA with A25C, C27A, C28G, G30C
DNA 1: CAATCTGAATTCCGGTCTCCC
DNA 2: TGGTGGCTACGACGGGATT
B26: AUGAGGU (DNA:RNA)
RNA: B1 RNA with C27G, C28A, U29G, C31U
DNA 1: CAATCTGAATTCCGGTCTCCC
DNA 2: TGGTGGCTACGACGGGATT
B27: CUGUGUC (DNA:RNA)
RNA: B11 RNA with G25C, G26U, A28U, A31C
DNA 1: CAATCTGAATTCCGGTCTCCC
DNA 2: TGGTGGCTACGACGGGATT
B28: UCUGCAA (DNA:RNA)
RNA: B11 RNA with G25U, G26C, G27U, A28G, G29C, U30A
DNA 1: CAATCTGAATTCCGGTCTCCC
DNA 2: TGGTGGCTACGACGGGATT
B29: UGGCUCC (DNA:RNA)
RNA: B1 RNA with A25U, U26G, C27G, G30C
DNA 1: CAATCTGAATTCCGGTCTCCC
DNA 2: TGGTGGCTACGACGGGATT
B30: UUCGUAU (DNA:RNA)
RNA: B1 RNA with A25U, C28G, G30A, C31U
DNA 1: CAATCTGAATTCCGGTCTCCC
DNA 2: TGGTGGCTACGACGGGATT
B31: CGACAAC (DNA:RNA)
RNA: B1 RNA with A25C, U26G, C27A, U29A, G30A
DNA 1: CAATCTGAATTCCGGTCTCCC
DNA 2: TGGTGGCTACGACGGGATT

These binders were tested against T1, RBFOX1 RRM (assay: EMSA; HiTS-Eq, 1 nM pool, 10 min; buffer printed only for the single-RNA assays: 10 mM Tris pH 7.5, 150 mM NaCl, 3.4 mM EDTA, 0.001% NP-40, 30 C). Settings: tags: His6 N-terminal (pET28a); label: 5' 32P.
How it was run: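 Relative association constants, normalised to the cognate motif, were derived by comparing read counts of each RNA species with those of the control reaction. The RNA sequenced was the free fraction, separated by 8% native PAGE after a 10 min equilibration in 50 µL of 1 nM 5′-radiolabelled RNA (7 randomized nucleotides) with increasing concentrations of purified wild-type or mutant RbFox RRM.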

Binder | binding signal
B1 | 0.00705 KA relative to UGCAUGU
B2 | 0.0037 KA relative to UGCAUGU
B3 | 0.0181 KA relative to UGCAUGU
B4 | 0.0109 KA relative to UGCAUGU
B5 | 0.0081 KA relative to UGCAUGU
B6 | 0.00616 KA relative to UGCAUGU
B7 | 0.00695 KA relative to UGCAUGU
B8 | 0.0136 KA relative to UGCAUGU
B9 | 0.0109 KA relative to UGCAUGU
B10 | 0.0196 KA relative to UGCAUGU
B11 | 0.0237 KA relative to UGCAUGU
B12 | 0.0105 KA relative to UGCAUGU
B13 | 0.0142 KA relative to UGCAUGU
B14 | 0.0389 KA relative to UGCAUGU
B15 | 0.00902 KA relative to UGCAUGU
B16 | 0.00153 KA relative to UGCAUGU

Binder | binding signal
B17 | 0.0118 KA relative to UGCAUGU
B18 | 0.0101 KA relative to UGCAUGU
B19 | 0.00441 KA relative to UGCAUGU
B20 | 0.0128 KA relative to UGCAUGU
B21 | 0.00177 KA relative to UGCAUGU
B22 | 0.0205 KA relative to UGCAUGU
B23 | 0.0106 KA relative to UGCAUGU
B24 | 0.00813 KA relative to UGCAUGU
B25 | 0.00439 KA relative to UGCAUGU
B26 | 0.0122 KA relative to UGCAUGU
B27 | 0.018 KA relative to UGCAUGU
B28 | 0.0129 KA relative to UGCAUGU
B29 | 0.00985 KA relative to UGCAUGU
B30 | 0.00931 KA relative to UGCAUGU
B31 | 0.00711 KA relative to UGCAUGU
